Source: patent US6500842B1, “8-hydroxy-7-substituted quinolines as anti-viral agents” (Pharmacia & Upjohn Company, priority 1996, dated 2002)
Values joined by “and” are separate entries in the source; they are usually repeats but may differ in a detail not shown here. Equal entries are not always repeated. At least one read-out could not be matched to a standard name with certainty.

Molecular target: T1, HCMV polymerase (Human cytomegalovirus, UniProt P08546)
T1 construct: made in house; host or cells: recombinant baculovirus-infected SF-9 cells
T1 sequence (P08546 whole entry): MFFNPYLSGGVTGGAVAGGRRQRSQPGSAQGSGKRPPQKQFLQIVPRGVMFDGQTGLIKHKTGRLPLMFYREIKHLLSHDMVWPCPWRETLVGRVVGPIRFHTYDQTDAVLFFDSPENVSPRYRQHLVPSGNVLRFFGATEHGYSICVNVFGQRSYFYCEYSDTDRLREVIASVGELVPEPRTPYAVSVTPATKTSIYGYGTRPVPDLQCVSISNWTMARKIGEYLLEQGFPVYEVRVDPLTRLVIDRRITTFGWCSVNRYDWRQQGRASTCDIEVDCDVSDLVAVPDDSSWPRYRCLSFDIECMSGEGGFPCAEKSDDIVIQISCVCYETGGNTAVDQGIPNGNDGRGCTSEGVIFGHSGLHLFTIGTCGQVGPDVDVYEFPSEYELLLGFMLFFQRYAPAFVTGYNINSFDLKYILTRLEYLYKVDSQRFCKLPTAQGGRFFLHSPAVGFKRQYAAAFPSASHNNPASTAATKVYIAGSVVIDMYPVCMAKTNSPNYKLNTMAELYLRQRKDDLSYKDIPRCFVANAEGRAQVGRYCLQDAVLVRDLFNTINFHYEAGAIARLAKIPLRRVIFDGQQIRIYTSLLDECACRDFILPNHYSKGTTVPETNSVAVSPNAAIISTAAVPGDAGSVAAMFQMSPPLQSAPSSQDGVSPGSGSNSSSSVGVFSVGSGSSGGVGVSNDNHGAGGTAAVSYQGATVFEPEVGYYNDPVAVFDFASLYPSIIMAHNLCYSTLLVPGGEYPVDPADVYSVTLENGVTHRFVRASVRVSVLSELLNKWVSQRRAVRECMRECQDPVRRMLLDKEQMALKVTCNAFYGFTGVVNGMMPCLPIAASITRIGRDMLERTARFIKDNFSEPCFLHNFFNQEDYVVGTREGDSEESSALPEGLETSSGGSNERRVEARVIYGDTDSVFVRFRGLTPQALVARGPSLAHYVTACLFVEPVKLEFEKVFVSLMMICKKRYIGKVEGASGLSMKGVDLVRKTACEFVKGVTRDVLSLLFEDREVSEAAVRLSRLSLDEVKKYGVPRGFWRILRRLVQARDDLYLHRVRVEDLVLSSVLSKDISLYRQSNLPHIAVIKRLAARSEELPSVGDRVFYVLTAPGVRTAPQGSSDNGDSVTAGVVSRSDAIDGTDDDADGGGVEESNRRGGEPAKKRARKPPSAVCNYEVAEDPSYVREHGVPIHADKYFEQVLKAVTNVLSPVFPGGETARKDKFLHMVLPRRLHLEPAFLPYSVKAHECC
Test: HCMV polymerase assay (scintillation proximity assay)
Type: biochemical
Conditions: for CMV pol Assay % Inhib: Table 1
Description: The HCMV polymerase assay is performed using a scintillation proximity assay (SPA) as described in several references, such as N. D. Cook, et al., Pharmaceutical Manufacturing International, pages 49-53 (1992); K. Takeuchi, Laboratory Practice, September issue (1992); U.S. Pat. No. 4,568,649 (1986); which are incorporated by reference herein. Reactions are performed in 96-well plates. The assay is conducted in 100 μl volume with 5.4 mM HEPES (pH 7.5), 11.7 mM KCl, 4.5 mM MgCl2, 0.36 mg/ml BSA, and 90 nM ^3H-dTTP. Assays are run with and without CHAPS, (3-[(3-Cholamidopropyl)-dimethylammonio]-1-propane-sulfonate) at a final concentration of 2 mM. HCMV is diluted in enzyme dilution buffer containing 50% glycerol, 250 mM NaCl, 10 mM HEPES (pH 7.5), 100 pg/ml BSA, and 0.01% sodium azide. The HCMV polymerase, which is expressed in recombinant baculovirus-infected SF-9 cells and purified according to literature procedures, is added at 10% (or 10 μl) of the final reaction volume, i.e., 100 μl. Compounds are diluted in 50% DMSO and 10 μl are added to each well. Control wells contain an equivalent concentration of DMSO. Unless noted otherwise, reactions are initiated via the addition of 6 nM biotinylated poly(dA)-oligo(dT) template/primer to reaction mixtures containing the enzyme, substrate, and compounds of interest. Plates are incubated in a 25° C. of 37° C. H2O bath and terminated via the addition of 40 μl/reaction of 0.5 M EDTA (pH 8) per well. Reactions are terminated within the time-frame during which substrate incorporation is linear and varied depending upon the enzyme and conditions used, i.e., 30 min. for HCMV polymerase. Ten μl of streptavidin-SPA beads (20 mg/ml in PBS/10% glycerol) are added following termination of the reaction. Plates are incubated 10 min. at 37° C., then equilibrated to room temperature, and counted on a Packard Topcount. Linear regressions are performed and IC50's are calculated using computer software. Results of the testing of compounds of the present invention in this assay are shown in Tables 1, 2, 5, 9, 10, 11, 13 (except for the last compound which was tested under modified conditions) and 14 below.

[1] = Table 10, Conc 1.00e-004 M, pol type CMV
[2] = Table 10, Conc 1.30e-005 M, pol type CMV
[3] = Table 10, Conc 2.50e-005 M, pol type CMV
[4] = Table 10, Conc 3.13e-006 M, pol type CMV
[5] = Table 10, Conc 5.00e-005 M, pol type CMV
[6] = Table 10, Conc 6.25e-006 M, pol type CMV
[7] = Table 10, Conc 1.56e-006 M, pol type CMV
[8] = Table 5, Conc 1.00e-004 M, pol type CMV
[9] = Table 5, Conc 1.30e-005 M, pol type CMV
[10] = Table 5, Conc 2.50e-005 M, pol type CMV
[11] = Table 5, Conc 3.13e-006 M, pol type CMV
[12] = Table 5, Conc 5.00e-005 M, pol type CMV
[13] = Table 5, Conc 6.25e-006 M, pol type CMV

O=C(Nc1ccc(CO)cc1)c1ccc2cccnc2c1O
% Inhib [1]: 99.6% | % Inhib [2]: 86.1% | % Inhib [3]: 96% and 97.3% | % Inhib [4]: 38.2% | % Inhib [5]: 99.3% | % Inhib [6]: 66%

Cc1noc(NS(=O)(=O)c2ccc(NC(=O)c3ccc4cccnc4c3O)cc2)c1C.Cl
% Inhib [1]: 57.2% | % Inhib [2]: 6.6% | % Inhib [3]: 15.8% | % Inhib [4]: −3.9% | % Inhib [5]: 20.5% | % Inhib [6]: 3.3%

O=C(Nc1ccc(Br)cc1Br)c1ccc2cccnc2c1O
% Inhib [3]: 35%

Cc1ccc(I)cc1NC(=O)c1ccc2cccnc2c1O
% Inhib [1]: 99.8% | % Inhib (Table 10, Conc 1.00e-005 M, pol type CMV): 98.4% | % Inhib (Table 10, Conc 1.25e-006 M, pol type CMV): 20.4% | % Inhib [2]: 99.6% | % Inhib [3]: 94% and 99.9% | % Inhib (Table 10, Conc 2.50e-006 M, pol type CMV): 62.8% | % Inhib [4]: 89.6% | % Inhib (Table 10, Conc 3.13e-007 M, pol type CMV): 14.5% | % Inhib [5]: 99.4% | % Inhib (Table 10, Conc 5.00e-006 M, pol type CMV): 95.2% | % Inhib [6]: 98.5% | % Inhib (Table 10, Conc 6.25e-007 M, pol type CMV): 19.7%

Cl.O=C(Nc1ccc(F)c(F)c1)c1ccc2cccnc2c1O
% Inhib [1]: 59% | % Inhib [2]: 8.4% | % Inhib [3]: 26.2% | % Inhib [4]: 0.4% | % Inhib [5]: 26.5% | % Inhib [6]: 7.1%

Cc1c(NC(=O)c2ccc3cccnc3c2O)cccc1[N+](=O)[O-]
% Inhib [2]: 85.5% | % Inhib [7]: 21.9% | % Inhib [3]: 88% and 99.3% | % Inhib [4]: 30.4% | % Inhib [5]: 99.3% | % Inhib [6]: 44.9%

Cc1ccc2c(Cl)cc(S(=O)(=O)NCc3ccccc3)c(O)c2n1 [Example 27, 5-Chloro-8-hydroxy-2-methyl-N-(phenylmethyl)-7-quinoline-sulfonamide]
% Inhib (Conc 1.00e−004 M, Table 2): 96.7% | % Inhib (Conc 1.30e−005 M, Table 2): 33.5% | % Inhib (Conc 2.50e−005 M, Table 2): 58.7% | % Inhib (Conc 3.13e−006 M, Table 2): 27.2% | % Inhib (Conc 5.00e−005 M, Table 2): 93.5% | % Inhib (Conc 6.25e−006 M, Table 2): 36.6%

O=C(Nc1ccccc1-n1cccc1)c1ccc2cccnc2c1O
% Inhib [2]: 2.7% | % Inhib [7]: −6% | % Inhib [4]: −5.4% | % Inhib [5]: 83.2% | % Inhib [6]: −0.7%

O=C(Nc1ccc(C(F)(F)F)cc1[N+](=O)[O-])c1ccc2cccnc2c1O
% Inhib [3]: 33.1%

COc1ccc(OC)c(NC(=O)c2ccc3cccnc3c2O)c1
% Inhib [3]: 24%

Cc1cc(C)c(NC(=O)c2ccc3cccnc3c2O)c(C)c1
% Inhib [3]: 82.2%

O=C(Nc1cccc(C(F)(F)F)c1)c1ccc2cccnc2c1O
% Inhib [2]: 73.9% | % Inhib [7]: 12.2% | % Inhib [3]: 69.2% and 96.5% | % Inhib [4]: 18.9% | % Inhib [5]: 100% | % Inhib [6]: 28.5%

O=C(NC1=NC(=O)C(c2cccc(Cl)c2)S1)c1ccc2cccnc2c1O (stereo not drawn) [Example 8, N-[5-(3-Chlorophenyl)-4,5-dihydro-4-oxo-2-thiazolyl]-8-hydroxy-7-quinolinecarboxamide]
CMV pol Assay % Inhib (Conc 1.00E−04 M): 71% | CMV pol Assay % Inhib (Conc 1.30E−05 M): 38.1% | CMV pol Assay % Inhib (Conc 2.50E−05 M): 52% | CMV pol Assay % Inhib (Conc 3.13E−06 M): 19.3% | CMV pol Assay % Inhib (Conc 5.00E−05 M): 59.6% | CMV pol Assay % Inhib (Conc 6.25E−06 M): 33.4%

O=C(Nc1ccccc1Br)c1ccc2cccnc2c1O
% Inhib [2]: 37% | % Inhib [7]: 7.7% | % Inhib [3]: 63.3% and 85.5% | % Inhib [4]: 14% | % Inhib [5]: 100% | % Inhib [6]: 5.1%

Cc1cc(F)ccc1NC(=O)c1ccc2cccnc2c1O
% Inhib [2]: 46.4% | % Inhib [7]: 22.7% | % Inhib [3]: 94.2% and 88.6% | % Inhib [4]: 26.5% | % Inhib [5]: 99.4% | % Inhib [6]: 31%

O=C(Nc1cc(C(F)(F)F)ccc1Cl)c1ccc2cccnc2c1O [drawing 221]
% Inhib [1]: 93.2% | % Inhib [2]: 45.5% | % Inhib [3]: 74.3% | % Inhib [4]: 12% | % Inhib [5]: 88.1% | % Inhib [6]: 24.4%

Cc1cc(C)cc(NC(=O)c2ccc3cccnc3c2O)c1
% Inhib [2]: 23.1% | % Inhib [7]: 5.9% | % Inhib [3]: 75.4% and 84% | % Inhib [4]: 11.1% | % Inhib [5]: 99.1% | % Inhib [6]: 13.1%

Cc1cccc(NC(=O)c2ccc3cccnc3c2O)c1 [drawing 224]
% Inhib [1]: 102.9% | % Inhib [2]: 41.9% | % Inhib [3]: 91.9% | % Inhib [4]: 17% | % Inhib [5]: 102.8% | % Inhib [6]: 18.6%

O=C(Nc1ccc2cccc(O)c2n1)c1ccc2cccnc2c1O
% Inhib [2]: 43.6% | % Inhib [7]: 16.8% | % Inhib [3]: 82.3% and 78.5% | % Inhib [4]: 14.1% | % Inhib [5]: 96.3% | % Inhib [6]: 16.6%

O=C(NCCSc1ccccc1)c1ccc2ccc(/C=C/c3ccccc3)nc2c1O [Example 52, 8-Hydroxy-2-(2-phenylethenyl)-N-[2-(phenylthio)ethyl]-7-quinolinecarboxamide]
% Inhib [8]: 99% and 98.6% | % Inhib [9]: 98.9% and 95.2% | % Inhib [10]: 98.7% and 97.3% | % Inhib [11]: 97.4% and 59.7% | % Inhib [12]: 98.5% and 98.7% | % Inhib [13]: 98.4% and 84.6%

COc1ccc(/C=C/c2ccc3ccc(C(=O)NCc4ccc(Cl)cc4)c(O)c3n2)cc1 [Example 47, N-[(4-Chlorophenyl)methyl]-8-hydroxy-2-[2-(4-methoxyphenyl)ethenyl]-7-quinolinecarboxamide]
% Inhib [8]: 73.1% | % Inhib (Table 5, Conc 1.00e-005 M, pol type CMV): 95.5% | % Inhib (Table 5, Conc 1.25e-006 M, pol type CMV): 88.5% and 96.4% | % Inhib [9]: 54.3% | % Inhib (Table 5, Conc 1.56e-007 M, pol type CMV): 20.3% | % Inhib [10]: 59.4% | % Inhib (Table 5, Conc 2.50e-006 M, pol type CMV): 94.9% and 96.7% | % Inhib [11]: 76.5% | % Inhib (Table 5, Conc 3.13e-007 M, pol type CMV): 48.6% and 80.5% | % Inhib [12]: 65.9% | % Inhib (Table 5, Conc 5.00e-006 M, pol type CMV): 96.1% | % Inhib [13]: 61.3% | % Inhib (Table 5, Conc 6.25e-007 M, pol type CMV): 76.7% and 93.2% | % Inhib (Table 5, Conc 7.81e-008 M, pol type CMV): 5.6%

CSc1ccccc1NC(=O)c1ccc2cccnc2c1O
% Inhib [2]: 62.8% | % Inhib [7]: 20.6% | % Inhib [3]: 97.5% and 95.4% | % Inhib [4]: 23.4% | % Inhib [5]: 99.7% | % Inhib [6]: 34.2%

O=C(NCC(O)c1ccccc1)c1ccc2ccc(/C=C/c3ccccc3)nc2c1O (stereo not drawn) [Example 50, 8-Hydroxy-N-(2-hydroxy-2-phenylethyl)-2-(2-phenylethenyl)-7-quinolinecarboxamide]
% Inhib [8]: 95.6% and 97.7% | % Inhib [10]: 80.9% and 96% | % Inhib [12]: 92.6% and 97.1%

O=C(Nc1ccccc1C(F)(F)F)c1ccc2cccnc2c1O
% Inhib [3]: 24%

O=C(Nc1cccc(OCc2ccccc2)c1)c1ccc2cccnc2c1O
% Inhib [2]: 97.2% | % Inhib [7]: 17.4% | % Inhib [3]: 85.3% and 98.3% | % Inhib [4]: 49.8% | % Inhib [5]: 99.1% | % Inhib [6]: 85.1%

O=C(NCc1ccc(Cl)cc1)c1cc(Cl)c2cccnc2c1O [Example 11, 5-Chloro-N-[(4-chlorophenyl)methyl]-8-hydroxy-7-quinolinecarboxamide]
CMV pol Assay % Inhib (Conc 1.00E−04 M): 98.3% | CMV pol Assay % Inhib (Conc 1.30E−05 M): 95.1% | CMV pol Assay % Inhib (Conc 2.50E−05 M): 98.2% | CMV pol Assay % Inhib (Conc 3.13E−06 M): 66% | CMV pol Assay % Inhib (Conc 5.00E−05 M): 97.9% | CMV pol Assay % Inhib (Conc 6.25E−06 M): 90.5%

Cc1ccc2c(Cl)cc(S(=O)(=O)NCCSc3ccccc3)c(O)c2n1 [Example 26, 5-Chloro-8-hydroxy-2-methyl-N-[2-(phenylthio)ethyl]-7-quinolinesulfonamide]
% Inhib (Conc 1.00e−004 M, Table 2): 90.1% | % Inhib (Conc 1.30e−005 M, Table 2): 79.5% | % Inhib (Conc 2.50e−005 M, Table 2): 86.4% | % Inhib (Conc 3.13e−006 M, Table 2): 32.1% | % Inhib (Conc 5.00e−005 M, Table 2): 87.8% | % Inhib (Conc 6.25e−006 M, Table 2): 60.2%
